Our source for the yeast fitness gain values is the supplement of paper PMC11741623.

The list shows a part of the results. Interaction screen of human proteins with wild-type SARS-CoV-2 proteins by split-DHFR complementation in yeast, 1 µg/mL methotrexate. Value = fitness of the pair (three or more lineages) minus that of the viral protein without a human partner, on a scale set by negative (0) and fused positive (1) controls, mean of up to three cultures; higher = more likely to interact. Active = false discovery rate below 0.05 (one-sided t-test) in at least one culture. Nearly all pairs are not hits, and differences among them are mostly noise (correlation between cultures about 0.3); most hits were seen in one culture only. Human sequences are the Swiss-Prot entries looked up by gene name; the clone may be another isoform. NSP2 values were corrected by the authors for a growth advantage. Listed are human proteins with a hit and a random twelfth of the others.

Sequences and labels used below:
B1: SAMSN1, Q9NSI8 (protein)
chain: MLKRKPSNVSEKEKHQKPKRSSSFGNFDRFRNNSLSKPDDSTEAHEGDPTNGSGEQSKTSNNGGGLGKKMRAISWTMKKKVGKKYIKALSEEKDEEDGENAHPYRNSDPVIGTHTEKVSLKASDSMDSLYSGQSSSSGITSCSDGTSNRDSFRLDDDGPYSGPFCGRARVHTDFTPSPYDTDSLKIKKGDIIDIICKTPMGMWTGMLNNKVGNFKFIYVDVISEEEAAPKKIKANRRSNSKKSKTLQEFLERIHLQEYTSTLLLNGYETLEDLKDIKESHLIELNIENPDDRRRLLSAAENFLEEEIIQEQENEPEPLSLSSDISLNKSQLDDCPRDSGCYISSGNSDNGKEDLESENLSDMVHKIIITEPSD
B2: PCGF6, Q9BYE7 (protein)
chain: MEGVAVVTAGSVGAAKTEGAAALPPPPPVSPPALTPAPAAGEEGPAPLSETGAPGCSGSRPPELEPERSLGRFRGRFEDEDEELEEEEELEEEEEEEEEDMSHFSLRLEGGRQDSEDEEERLINLSELTPYILCSICKGYLIDATTITECLHTFCKSCIVRHFYYSNRCPKCNIVVHQTQPLYNIRLDRQLQDIVYKLVINLEEREKKQMHDFYKERGLEVPKPAVPQPVPSSKGRSKKVLESVFRIPPELDMSLLLEFIGANEGTGHFKPLEKKFVRVSGEATIGHVEKFLRRKMGLDPACQVDIICGDHLLEQYQTLREIRRAIGDAAMQDGLLVLHYGLVVSPLKIT
B3: EPHA1, P21709 (protein)
chain: MERRWPLGLGLVLLLCAPLPPGARAKEVTLMDTSKAQGELGWLLDPPKDGWSEQQQILNGTPLYMYQDCPMQGRRDTDHWLRSNWIYRGEEASRVHVELQFTVRDCKSFPGGAGPLGCKETFNLLYMESDQDVGIQLRRPLFQKVTTVAADQSFTIRDLVSGSVKLNVERCSLGRLTRRGLYLAFHNPGACVALVSVRVFYQRCPETLNGLAQFPDTLPGPAGLVEVAGTCLPHARASPRPSGAPRMHCSPDGEWLVPVGRCHCEPGYEEGGSGEACVACPSGSYRMDMDTPHCLTCPQQSTAESEGATICTCESGHYRAPGEGPQVACTGPPSAPRNLSFSASGTQLSLRWEPPADTGGRQDVRYSVRCSQCQGTAQDGGPCQPCGVGVHFSPGARGLTTPAVHVNGLEPYANYTFNVEAQNGVSGLGSSGHASTSVSISMGHAESLSGLSLRLVKKEPRQLELTWAGSRPRSPGANLTYELHVLNQDEERYQMVLEPRVLLTELQPDTTYIVRVRMLTPLGPGPFSPDHEFRTSPPVSRGLTGGEIVAVIFGLLLGAALLLGILVFRSRRAQRQRQQRQRDRATDVDREDKLWLKPYVDLQAYEDPAQGALDFTRELDPAWLMVDTVIGEGEFGEVYRGTLRLPSQDCKTVAIKTLKDTSPGGQWWNFLREATIMGQFSHPHILHLEGVVTKRKPIMIITEFMENGALDAFLREREDQLVPGQLVAMLQGIASGMNYLSNHNYVHRDLAARNILVNQNLCCKVSDFGLTRLLDDFDGTYETQGGKIPIRWTAPEAIAHRIFTTASDVWSFGIVMWEVLSFGDKPYGEMSNQEVMKSIEDGYRLPPPVDCPAPLYELMKNCWAYDRARRPHFQKLQAHLEQLLANPHSLRTIANFDPRMTLRLPSLSGSDGIPYRTVSEWLESIRMKRYILHFHSAGLDTMECVLELTAEDLTQMGITLPGHQKRILCSIQGFKD
B4: DGAT2, Q96PD7 (protein)
chain: MKTLIAAYSGVLRGERQAEADRSQRSHGGPALSREGSGRWGTGSSILSALQDLFSVTWLNRSKVEKQLQVISVLQWVLSFLVLGVACSAILMYIFCTDCWLIAVLYFTWLVFDWNTPKKGGRRSQWVRNWAVWRYFRDYFPIQLVKTHNLLTTRNYIFGYHPHGIMGLGAFCNFSTEATEVSKKFPGIRPYLATLAGNFRMPVLREYLMSGGICPVSRDTIDYLLSKNGSGNAIIIVVGGAAESLSSMPGKNAVTLRNRKGFVKLALRHGADLVPIYSFGENEVYKQVIFEEGSWGRWVQKKFQKYIGFAPCIFHGRGLFSSDTWGLVPYSKPITTVVGEPITIPKLEHPTQQDIDLYHTMYMEALVKLFDKHKTKFGLPETEVLEVN
B5: PRSS50, Q9UI38 (protein)
chain: MGRWCQTVARGQRPRTSAPSRAGALLLLLLLLRSAGCWGAGEAPGALSTADPADQSVQCVPKATCPSSRPRLLWQTPTTQTLPSTTMETQFPVSEGKVDPYRSCGFSYEQDPTLRDPEAVARRWPWMVSVRANGTHICAGTIIASQWVLTVAHCLIWRDVIYSVRVGSPWIDQMTQTASDVPVLQVIMHSRYRAQRFWSWVGQANDIGLLKLKQELKYSNYVRPICLPGTDYVLKDHSRCTVTGWGLSKADGMWPQFRTIQEKEVIILNNKECDNFYHNFTKIPTLVQIIKSQMMCAEDTHREKFCYELTGEPLVCSMEGTWYLVGLVSWGAGCQKSEAPPIYLQVSSYQHWIWDCLNGQALALPAPSRTLLLALPLPLSLLAAL
B6: BEX5, Q5H9J7 (protein)
chain: MENVPKENKVVEKAPVQNEAPALGGGEYQEPGGNVKGVWAPPAPGFGEDVPNRLVDNIDMIDGDGDDMERFMEEMRELRRKIRELQLRYSLRILIGDPPHHDHHDEFCLMP
B7: ALOX15, P16050 (protein)
chain: MGLYRIRVSTGASLYAGSNNQVQLWLVGQHGEAALGKRLWPARGKETELKVEVPEYLGPLLFVKLRKRHLLKDDAWFCNWISVQGPGAGDEVRFPCYRWVEGNGVLSLPEGTGRTVGEDPQGLFQKHREEELEERRKLYRWGNWKDGLILNMAGAKLYDLPVDERFLEDKRVDFEVSLAKGLADLAIKDSLNVLTCWKDLDDFNRIFWCGQSKLAERVRDSWKEDALFGYQFLNGANPVVLRRSAHLPARLVFPPGMEELQAQLEKELEGGTLFEADFSLLDGIKANVILCSQQHLAAPLVMLKLQPDGKLLPMVIQLQLPRTGSPPPPLFLPTDPPMAWLLAKCWVRSSDFQLHELQSHLLRGHLMAEVIVVATMRCLPSIHPIFKLIIPHLRYTLEINVRARTGLVSDMGIFDQIMSTGGGGHVQLLKQAGAFLTYSSFCPPDDLADRGLLGVKSSFYAQDALRLWEIIYRYVEGIVSLHYKTDVAVKDDPELQTWCREITEIGLQGAQDRGFPVSLQARDQVCHFVTMCIFTCTGQHASVHLGQLDWYSWVPNAPCTMRLPPPTTKDATLETVMATLPNFHQASLQMSITWQLGRRQPVMVAVGQHEEEYFSGPEPKAVLKKFREELAALDKEIEIRNAKLDMPYEYLRPSVVENSVAI

One test addresses SARS-CoV-2 NSP13. Put plainly: yeast fitness gain over the viral ORF with no human partner (scaled fitness); higher = more likely to interact. The procedure: (§1)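 Split mouse DHFR complementation in pooled diploid yeast: human ORFeome clones carry one fragment and viral ORFs the other; barcoded lineages compete in 1 µg/mL methotrexate and fitness is read by barcode sequencing in up to three cultures.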
Take B1: the yeast fitness gain is inactive: 0.102.

Take B2: the yeast fitness gain was inactive: -0.177.

Take B3: the yeast fitness gain was inactive: -0.133.

For B4, the yeast fitness gain is inactive: -0.143.

For B5, the yeast fitness gain was inactive: 0.0301.

On to B6, for which the yeast fitness gain is inactive: -0.0379.

On to B7, for which the yeast fitness gain is inactive: 0.0328.

For another test, the target named is SARS-CoV-2 NSP2. The description is as above. The procedure: as §1
With B1, the yeast fitness gain is inactive: 0.0182.

Take B2: the yeast fitness gain was inactive: -0.478.

Turning to B4, the yeast fitness gain is inactive: -0.148.

On to B6, for which the yeast fitness gain was inactive: -0.343.

Another test addresses SARS-CoV-2 ORF3B. The description is as above. Here is the method:
as §1
For B1, the yeast fitness gain was inactive: 0.205.

B3: the yeast fitness gain is inactive: -0.0994.

In a further test the target is SARS-CoV-2 ORF9B. The description is as above. The procedure:
as §1
With B1, the yeast fitness gain is inactive: -0.307.

B3: the yeast fitness gain was inactive: -0.0773.

Consider B5, for which the yeast fitness gain is inactive: -0.293.

Regarding B6, the yeast fitness gain is inactive: 0.0496.

A further test concerns the target SARS-CoV-2 ORF8. The description is as above. The procedure: as §1
Turning to B2, the yeast fitness gain was inactive: -0.107.

The target of a further test is SARS-CoV-2 NSP5. The test is described as above. The procedure:
as §1
For the molecule B6, the yeast fitness gain is inactive: -0.0219.

The next test addresses SARS-CoV-2 ORF6. The description is as above. Here is the method: as §1
Regarding B6, the yeast fitness gain is inactive: 0.0312.
